Test results from the supplement of paper PMC8728848.
The list shows a part of the results.

Key:
Test in all cases: glycan array binding signal (z-score within array); higher = stronger binding
Details in all cases: glycan notation: IUPAC condensed, linker removed
[1] = molecular target: GlcNAc(b1-3)Gal(b1-4)GlcNAc(b1-3)Gal(b1-4)GlcNAc(b1-3)GalNAc
Summary of the method: (§1)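 The Consortium for Functional Glycomics database supplied 3228 glycan arrays, of which those lacking an available protein sequence were dropped. The binding signal, a within-array Z-score, was averaged across arrays of the same protein sequence and across linkers. Negative scores can be read as non-binding.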

[2] = molecular target: GlcNAc(b1-3)Gal(b1-4)GlcNAc(b1-3)GalNAc
Summary of the method: as §1

[3] = molecular target: GlcNAc(b1-3)Gal(b1-4)GlcNAc(b1-3)[GlcNAc(b1-3)Gal(b1-4)GlcNAc(b1-3)]GalNAc
Summary of the method: as §1

[4] = molecular target: GlcNAc(b1-3)Gal(b1-4)GlcNAc(b1-6)[Gal(b1-3)]GalNAc
Summary of the method: as §1

[5] = molecular target: GlcNAc(b1-3)Gal(b1-4)GlcNAc(b1-6)[GlcNAc(b1-3)Gal(b1-3)]GalNAc
Summary of the method: as §1

[6] = molecular target: GlcNAc(b1-3)Gal(b1-4)GlcNAc(b1-6)[GlcNAc(b1-3)]Gal(b1-4)GlcNAc
Summary of the method: as §1

GlcNAc(b1-3)GalNAc = molecular target: GlcNAc(b1-3)GalNAc
Summary of the method: as §1

GlcNAc(b1-3)Man = molecular target: GlcNAc(b1-3)Man
Summary of the method: as §1

[7] = molecular target: GlcNAc(b1-3)[GlcNAc(b1-4)][GlcNAc(b1-6)]GlcNAc
Summary of the method: as §1

[8] = molecular target: GlcNAc(b1-3)[GlcNAc(b1-6)]Gal(b1-4)GlcNAc
Summary of the method: as §1

[9] = molecular target: GlcNAc(b1-3)[GlcNAc(b1-6)]GalNAc
Summary of the method: as §1

[10] = molecular target: GlcNAc(b1-4)Gal(b1-4)GlcNAc
Summary of the method: as §1

GlcNAc(b1-4)GlcNAc = molecular target: GlcNAc(b1-4)GlcNAc
Summary of the method: as §1

[11] = molecular target: GlcNAc(b1-4)GlcNAc(b1-4)GlcNAc
Summary of the method: as §1

[12] = molecular target: GlcNAc(b1-4)GlcNAc(b1-4)GlcNAc(b1-4)GlcNAc(b1-4)GlcNAc
Summary of the method: as §1

[13] = molecular target: GlcNAc(b1-4)GlcNAc(b1-4)GlcNAc(b1-4)GlcNAc(b1-4)GlcNAc(b1-4)GlcNAc
Summary of the method: as §1

[14] = molecular target: GlcNAc(b1-4)[GlcNAc(b1-6)]GalNAc
Summary of the method: as §1

[15] = molecular target: GlcNAc(b1-6)Gal(b1-4)GlcNAc
Summary of the method: as §1

GlcNAc(b1-6)GalNAc = molecular target: GlcNAc(b1-6)GalNAc
Summary of the method: as §1

[16] = molecular target: GlcNAc6S(b1-3)Gal(b1-4)GlcNAc
Summary of the method: as §1

Kdn(a2-3)Gal(b1-3)GalNAc = molecular target: Kdn(a2-3)Gal(b1-3)GalNAc
Summary of the method: as §1

Kdn(a2-3)Gal(b1-3)GlcNAc = molecular target: Kdn(a2-3)Gal(b1-3)GlcNAc
Summary of the method: as §1

Kdn(a2-3)Gal(b1-4)Glc = molecular target: Kdn(a2-3)Gal(b1-4)Glc
Summary of the method: as §1

Kdn(a2-3)Gal(b1-4)GlcNAc = molecular target: Kdn(a2-3)Gal(b1-4)GlcNAc
Summary of the method: as §1

[17] = molecular target: Kdn(a2-3)Gal(b1-4)[Fuc(a1-3)]GlcNAc
Summary of the method: as §1

Kdn(a2-6)Gal(b1-4)GlcNAc = molecular target: Kdn(a2-6)Gal(b1-4)GlcNAc
Summary of the method: as §1

[18] = molecular target: Man(a1-2)Man(a1-2)Man(a1-3)Man
Summary of the method: as §1

[19] = molecular target: Man(a1-2)Man(a1-2)Man(a1-6)[Man(a1-3)]Man
Summary of the method: as §1

Man(a1-2)Man(a1-3)Man = molecular target: Man(a1-2)Man(a1-3)Man
Summary of the method: as §1

[20] = molecular target: Man(a1-2)Man(a1-3)[Man(a1-2)Man(a1-6)]Man
Summary of the method: as §1

[21] = molecular target: Man(a1-2)Man(a1-3)[Man(a1-2)Man(a1-6)]Man(a1-6)[Man(a1-2)Man(a1-2)Man(a1-3)]Man
Summary of the method: as §1

[22] = molecular target: Man(a1-2)Man(a1-3)[Man(a1-2)Man(a1-6)]Man(a1-6)[Man(a1-2)Man(a1-2)Man(a1-3)]Man(b1-4)GlcNAc(b1-4)GlcNAc
Summary of the method: as §1

[23] = molecular target: Man(a1-2)Man(a1-3)[Man(a1-6)]Man(a1-6)[Man(a1-2)Man(a1-3)]Man(b1-4)GlcNAc(b1-4)GlcNAc
Summary of the method: as §1

[24] = molecular target: Man(a1-2)Man(a1-6)[Man(a1-3)]Man(a1-6)[Man(a1-2)Man(a1-2)Man(a1-3)]Man
Summary of the method: as §1

[25] = molecular target: Man(a1-2)Man(a1-6)[Man(a1-3)]Man(a1-6)[Man(a1-2)Man(a1-2)Man(a1-3)]Man(b1-4)GlcNAc(b1-4)GlcNAc
Summary of the method: as §1

Man(a1-3)[Man(a1-6)]Man = molecular target: Man(a1-3)[Man(a1-6)]Man
Summary of the method: as §1

[26] = molecular target: Man(a1-3)[Man(a1-6)]Man(a1-6)[Man(a1-2)Man(a1-3)]Man(b1-4)GlcNAc(b1-4)GlcNAc
Summary of the method: as §1

[27] = molecular target: Man(a1-3)[Man(a1-6)]Man(a1-6)[Man(a1-3)]Man
Summary of the method: as §1

[28] = molecular target: Man(a1-3)[Man(a1-6)]Man(a1-6)[Man(a1-3)]Man(b1-4)GlcNAc(b1-4)GlcNAc
Summary of the method: as §1

[29] = molecular target: Man(a1-3)[Man(a1-6)]Man(b1-4)GlcNAc(b1-4)GlcNAc
Summary of the method: as §1

[30] = molecular target: Man(a1-3)[Man(a1-6)]Man(b1-4)GlcNAc(b1-4)[Fuc(a1-6)]GlcNAc
Summary of the method: as §1

Man(a1-6)Man = molecular target: Man(a1-6)Man
Summary of the method: as §1

Man(b1-4)GlcNAc = molecular target: Man(b1-4)GlcNAc
Summary of the method: as §1

MurNAc(b1-4)GlcNAc = molecular target: MurNAc(b1-4)GlcNAc
Summary of the method: as §1

Neu5Ac(a2-3)Gal = molecular target: Neu5Ac(a2-3)Gal
Summary of the method: as §1

B1: EULS2 M2 (Oryza sativa) (protein)
chain: MVYCRANPNYAMTARNGAVVLAPANPKDEYQHWIKDMRWSTSIKDEEGYPAFALVNKATGQAIKHSLGQSHPVRLVPYNPEVMDESVLWTESRDVGNGFRCIRMVNNIYLNFDAFHGDKYHGGVRDGTDIVLWKLCEGDSQRWKIQPYYILEQKLISEEDLNSAVDHHHHHH
With B1 the “glycan array binding signal (z-score)” value [1] was -0.556, the “glycan array binding signal (z-score)” value [2] was 0.044 and the “glycan array binding signal (z-score)” value [3] was -0.48. The “glycan array binding signal (z-score)” value [4] was -0.263, the “glycan array binding signal (z-score)” value [5] was -0.189 and the “glycan array binding signal (z-score)” value [6] was -0.388. The “glycan array binding signal (z-score)” value (GlcNAc(b1-3)GalNAc) was 0.313, the “glycan array binding signal (z-score)” value (GlcNAc(b1-3)Man) was -0.054 and the “glycan array binding signal (z-score)” value [7] was 0.48. The “glycan array binding signal (z-score)” value [8] was -0.393, the “glycan array binding signal (z-score)” value [9] was -0.461 and the “glycan array binding signal (z-score)” value [10] was -0.154. The “glycan array binding signal (z-score)” value (GlcNAc(b1-4)GlcNAc) was -0.28, the “glycan array binding signal (z-score)” value [11] was -0.527 and the “glycan array binding signal (z-score)” value [12] was -0.238. For the same binder, the “glycan array binding signal (z-score)” value [13] was -0.562, the “glycan array binding signal (z-score)” value [14] was 0.132 and the “glycan array binding signal (z-score)” value [15] was -0.639. The “glycan array binding signal (z-score)” value (GlcNAc(b1-6)GalNAc) was -0.318, the “glycan array binding signal (z-score)” value [16] was 0.717 and the “glycan array binding signal (z-score)” value (Kdn(a2-3)Gal(b1-3)GalNAc) was 0.365. The “glycan array binding signal (z-score)” value (Kdn(a2-3)Gal(b1-3)GlcNAc) was -0.436, the “glycan array binding signal (z-score)” value (Kdn(a2-3)Gal(b1-4)Glc) was -0.15 and the “glycan array binding signal (z-score)” value (Kdn(a2-3)Gal(b1-4)GlcNAc) was -0.327. The “glycan array binding signal (z-score)” value [17] was -0.202, the “glycan array binding signal (z-score)” value (Kdn(a2-6)Gal(b1-4)GlcNAc) was -0.642 and the “glycan array binding signal (z-score)” value [18] was -0.332. The “glycan array binding signal (z-score)” value [19] was -0.552, the “glycan array binding signal (z-score)” value (Man(a1-2)Man(a1-3)Man) was 0.198 and the “glycan array binding signal (z-score)” value [20] was -0.526. For the same binder, the “glycan array binding signal (z-score)” value [21] was -0.277, the “glycan array binding signal (z-score)” value [22] was -0.009 and the “glycan array binding signal (z-score)” value [23] was 1.21. The “glycan array binding signal (z-score)” value [24] was 0.06, the “glycan array binding signal (z-score)” value [25] was 1.17 and the “glycan array binding signal (z-score)” value (Man(a1-3)[Man(a1-6)]Man) was 0.389. The “glycan array binding signal (z-score)” value [26] was 0.276, the “glycan array binding signal (z-score)” value [27] was 7.3 and the “glycan array binding signal (z-score)” value [28] was 3.29. The “glycan array binding signal (z-score)” value [29] was 1.71, the “glycan array binding signal (z-score)” value [30] was 0.966 and the “glycan array binding signal (z-score)” value (Man(a1-6)Man) was 5.83. For the same binder, the “glycan array binding signal (z-score)” value (Man(b1-4)GlcNAc) was 0.004, the “glycan array binding signal (z-score)” value (MurNAc(b1-4)GlcNAc) was -0.291 and the “glycan array binding signal (z-score)” value (Neu5Ac(a2-3)Gal) was -0.081.
